From patent US8053415B2, “Compounds having RD targeting motifs” (Washington University in St. Louis, priority 2005, dated 2011)
At least one compound was matched to its structure with a doubt left. Where a SMILES comes first, the peptide text is derived from it. The star is where a group is joined. Cypate = CC1(C)C(/C=C/C=C/C=C/C=C2/N(CCC(=O)*)c3ccc4ccccc4c3C2(C)C)=[N+](CCC(=O)O)c2ccc3ccccc3c21; DOTA = O=C(O)CN1CCN(CC(=O)O)CCN(CC(=O)*)CCN(CC(=O)O)CC1

target: T1, purified human αvβ3 integrin protein (Homo sapiens, UniProt P05106+P06756); assay: Competitive αvβ3 integrin receptor binding assay with 125I-echistatin tracer (Example 2); conditions: Table 2; 125I-echistatin tracer; read-out: IC50 (αvβ3 integrin binding affinities)
T1 construct: purchased Chemicon International, Inc. (Temecula, Calif.)
Protocol: The binding affinities were measured based on the competitive binding between purified αvβ3 integrin (ABI) and peptide ligands. Echistatin is a polypeptide that binds irreversibly with high affinity and specificity to ABI. ^125I-echistatin was used as a tracer in ABI binding assays.
Receptor binding assays were performed by using purified human αvβ3 integrin protein from Chemicon International, Inc. (Temecula, Calif.). Assays were carried out using the Millipore Duropore membrane 96-well plates and the Millipore MultiScreen system (Bedford, Mass.). The 96-well membrane plate was blocked with 0.1% Polythylenimine blocking solution overnight at 4° C. ^125I-echistatin (50 nmol/L) was added to the binding buffer (50 mM Tris-HCl, pH 7.4, 100 mM NaCl, 2 mM CaCl2, 1 mM MgCl2, 1 mM MnCl2, 1% BSA) containing integrin protein (50 ng per well in 96-well membrane plate) and ligands in a total volume of 200 μL per well. The concentration range of ligand was between 0.01 μM and 100 μM. The mixtures were incubated for 2 h at room temperature, the ABI was then filtered by centrifugation at 1500 g and washed three times with 0.20 mL of ice-cold binding buffer. The filters containing radioactivity bound ABI were removed using a punch apparatus and counted using a Packard Cobra II Auto-gamma counter (Meriden, Conn.). […] Radiolabeling of ^125I-echistatin (Amersham Biosciences, Piscataway, N.J.) was carried out in a mixture of 0.25% BSA, 5.0% lactose, 0.21% citric acid and aprotinin (0.9 TIU/ml).

SMILES	IC50 [µM]
CC1(C)C(=CC=CC=CC=CC2=[N+](CCC(=O)O)c3ccc4ccccc4c3C2(C)C)N(CCC(=O)N[C@H]2CSSC[C@@H](C(N)=O)NC(=O)[C@H](CC(=O)O)NC(=O)[C@H](CC(=O)O)NC(=O)CNC(=O)[C@H](CCCNC(=N)N)NC2=O)c2ccc3ccccc3c21 [Cypate-cyclo(CRGDDC)-NH2] (HELM PEPTIDE1{[CC1(C)C(/C=C/C=C/C=C/C=C2/N(CCC(=O)[*:2])c3ccc4ccccc4c3C2(C)C)=[N+](CCC(=O)O)c2ccc3ccccc3c21].C.R.G.D.D.C.[am]}$PEPTIDE1,PEPTIDE1,2:R3-7:R3$$$V2.0)	1.89
CC1(C)C(=CC=CC=CC=CC2=[N+](CCC(=O)O)c3ccc4ccccc4c3C2(C)C)N(CCC(=O)N[C@H]2CSSC[C@@H](C(N)=O)NC(=O)[C@H](CO)NC(=O)[C@H](CC(=O)O)NC(=O)CNC(=O)[C@H](CCCNC(=N)N)NC2=O)c2ccc3ccccc3c21 [Cypate-cyclo(CRGDSC)-NH2] (HELM PEPTIDE1{[CC1(C)C(/C=C/C=C/C=C/C=C2/N(CCC(=O)[*:2])c3ccc4ccccc4c3C2(C)C)=[N+](CCC(=O)O)c2ccc3ccccc3c21].C.R.G.D.S.C.[am]}$PEPTIDE1,PEPTIDE1,2:R3-7:R3$$$V2.0)	1.14

same assay, conditions: Table 3; 125I-echistatin tracer; read-out: IC50

SMILES	IC50 [µM]
C[C@@H](O)[C@H](NC(=O)[C@@H]1CSSC[C@H](NC(=O)[C@@H](Cc2ccccc2)NC(=O)CCN2C(=CC=CC=CC=CC3=[N+](CCC(=O)N[C@@H](CCCNC(=N)N)C(=O)NCC(=O)N[C@@H](CC(=O)O)C(N)=O)c4ccc5ccccc5c4C3(C)C)C(C)(C)c3c2ccc2ccccc32)C(=O)N[C@@H](Cc2ccc(O)cc2)C(=O)N[C@H](Cc2c[nH]c3ccccc23)C(=O)N[C@@H](CCCCN)C(=O)N[C@@H]([C@@H](C)O)C(=O)N1)C(=O)O [Cypate(Octreotate)1-(Arg-Gly-Asp-NH2)1]	4.67
CC1(C)C(=CC=CC=CC=CC2=[N+](CCC(=O)O)c3ccc4ccccc4c3C2(C)C)N(CCC(=O)NCCCC[C@H](NC(=O)[C@@H]2CCCN2C(=O)[C@H](CO)NC(=O)[C@H](CC(=O)O)NC(=O)CNC(=O)[C@H](CCCNC(=N)N)NC(=O)CN2CCN(CC(=O)O)CCN(CC(=O)O)CCN(CC(=O)O)CC2)C(N)=O)c2ccc3ccccc3c21 [DOTA-Arg-Gly-Asp-Ser-Pro-Lys(Cypate)-NH2] ({DOTA}-RGDSPK(Cypate)-NH2)	0.722
CC1(C)C(=CC=CC=CC=CC2=[N+](CCC(=O)N[C@H]3C(O)O[C@H](CO)[C@@H](O)[C@@H]3O)c3ccc4ccccc4c3C2(C)C)N(CCC(=O)N[C@@H](CCCNC(=N)N)C(=O)NCC(=O)N[C@@H](CC(=O)O)C(=O)N[C@@H](CO)C(N)=O)c2ccc3ccccc3c21 (stereo partly drawn) [Cypate(Arg-Gly-Asp-Ser-NH2)1-(D-Glucosamine)]	1.94
N=C(N)NCCC[C@@H]1NC(=O)[C@H](CC(=O)NCCCCCC(=O)N[C@@H](CCCCN)C(=O)O)NC(=O)[C@@H](Cc2ccccc2)NC(=O)[C@H](CC(=O)O)NC(=O)CNC1=O [Cyclo(Arg-Gly-Asp-DPhe-Asp)-EAhx-Lys-OH] (HELM PEPTIDE1{R.G.D.[dF].D}|PEPTIDE2{[O=C(CCCCCN[*:1])[*:2]].K}$PEPTIDE1,PEPTIDE2,5:R3-1:R1|PEPTIDE1,PEPTIDE1,1:R1-5:R2$$$V2.0)	1.94
CC1(C)C(=CC=CC=CC=CC2=[N+](CCC(=O)O)c3ccc4ccccc4c3C2(C)C)N(CCC(=O)N[C@@H](CCCCN)C(=O)N[C@@H](CCCNC(=N)N)C(=O)NCC(=O)N[C@@H](CC(=O)O)C(=O)N[C@H](Cc2ccccc2)C(=O)N[C@@H](CC(=O)O)C(=O)N[C@H](Cc2ccccc2)C(=O)NCCCCCC(N)=O)c2ccc3ccccc3c21 [Cypate-Lys-Arg-Gly-Asp-DPhe-Asp-DPhe-EAhx-NH2] (HELM PEPTIDE1{[CC1(C)C(/C=C/C=C/C=C/C=C2/N(CCC(=O)[*:2])c3ccc4ccccc4c3C2(C)C)=[N+](CCC(=O)O)c2ccc3ccccc3c21].K.R.G.D.[dF].D.[dF].[O=C(CCCCCN[*:1])[*:2]].[am]}$$$$V2.0)	0.328
